Source: publication PMC9911399, “Two distinct binding modes provide the RNA-binding protein RbFox with extraordinary sequence specificity”
Residue numbers refer to the chain shown, from its start. The list shows a part of the results.

T1: RBFOX1 RRM (Homo sapiens, UniProt Q9NWB1 109-208)
T1 sequence: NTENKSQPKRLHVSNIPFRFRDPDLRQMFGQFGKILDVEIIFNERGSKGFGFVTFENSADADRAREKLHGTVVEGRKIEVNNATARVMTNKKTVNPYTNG

B1: UAACGCC (DNA:RNA)
RNA: GGGAGACCGGAAUUCAGAUUGUCCUAACGCCUUAAAUCCCGUCGUAGCCACCA
DNA 1: CAATCTGAATTCCGGTCTCCC
DNA 2: TGGTGGCTACGACGGGATT
B2: AUUCGAA (DNA:RNA)
RNA: B1 RNA with U25A, A26U, A27U, C30A, C31A
DNA 1: CAATCTGAATTCCGGTCTCCC
DNA 2: TGGTGGCTACGACGGGATT
B3: GUGAGAG (DNA:RNA)
RNA: B1 RNA with U25G, A26U, A27G, C28A, C30A, C31G
DNA 1: CAATCTGAATTCCGGTCTCCC
DNA 2: TGGTGGCTACGACGGGATT
B4: CACCAUG (DNA:RNA)
RNA: B1 RNA with U25C, A27C, G29A, C30U, C31G
DNA 1: CAATCTGAATTCCGGTCTCCC
DNA 2: TGGTGGCTACGACGGGATT
B5: UCAGUCU (DNA:RNA)
RNA: B1 RNA with A26C, C28G, G29U, C31U
DNA 1: CAATCTGAATTCCGGTCTCCC
DNA 2: TGGTGGCTACGACGGGATT
B6: GCCCGAA (DNA:RNA)
RNA: B1 RNA with U25G, A26C, A27C, C30A, C31A
DNA 1: CAATCTGAATTCCGGTCTCCC
DNA 2: TGGTGGCTACGACGGGATT
B7: CCAGCCA (DNA:RNA)
RNA: B1 RNA with U25C, A26C, C28G, G29C, C31A
DNA 1: CAATCTGAATTCCGGTCTCCC
DNA 2: TGGTGGCTACGACGGGATT
B8: GCUCAGU (DNA:RNA)
RNA: B1 RNA with U25G, A26C, A27U, G29A, C30G, C31U
DNA 1: CAATCTGAATTCCGGTCTCCC
DNA 2: TGGTGGCTACGACGGGATT
B9: GGGUCUG (DNA:RNA)
RNA: GGGAGACCGGAAUUCAGAUUGUCCGGGUCUGUUAAAUCCCGUCGUAGCCACCA
DNA 1: CAATCTGAATTCCGGTCTCCC
DNA 2: TGGTGGCTACGACGGGATT
B10: AGACGAG (DNA:RNA)
RNA: B1 RNA with U25A, A26G, C30A, C31G
DNA 1: CAATCTGAATTCCGGTCTCCC
DNA 2: TGGTGGCTACGACGGGATT
B11: UCAGGAC (DNA:RNA)
RNA: B1 RNA with A26C, C28G, C30A
DNA 1: CAATCTGAATTCCGGTCTCCC
DNA 2: TGGTGGCTACGACGGGATT
B12: CCAGCCC (DNA:RNA)
RNA: B1 RNA with U25C, A26C, C28G, G29C
DNA 1: CAATCTGAATTCCGGTCTCCC
DNA 2: TGGTGGCTACGACGGGATT
B13: CUCCCCG (DNA:RNA)
RNA: B9 RNA with G25C, G26U, G27C, U28C, U30C
DNA 1: CAATCTGAATTCCGGTCTCCC
DNA 2: TGGTGGCTACGACGGGATT
B14: UAACGCG (DNA:RNA)
RNA: B1 RNA with C31G
DNA 1: CAATCTGAATTCCGGTCTCCC
DNA 2: TGGTGGCTACGACGGGATT
B15: UUUAUAU (DNA:RNA)
RNA: B1 RNA with A26U, A27U, C28A, G29U, C30A, C31U
DNA 1: CAATCTGAATTCCGGTCTCCC
DNA 2: TGGTGGCTACGACGGGATT
B16: UAUCGUC (DNA:RNA)
RNA: B1 RNA with A27U, C30U
DNA 1: CAATCTGAATTCCGGTCTCCC
DNA 2: TGGTGGCTACGACGGGATT
B17: UGCGUAU (DNA:RNA)
RNA: B9 RNA with G25U, G27C, U28G, C29U, U30A, G31U
DNA 1: CAATCTGAATTCCGGTCTCCC
DNA 2: TGGTGGCTACGACGGGATT
B18: CCAGGGU (DNA:RNA)
RNA: B1 RNA with U25C, A26C, C28G, C30G, C31U
DNA 1: CAATCTGAATTCCGGTCTCCC
DNA 2: TGGTGGCTACGACGGGATT
B19: GGGCUCU (DNA:RNA)
RNA: B9 RNA with U28C, C29U, U30C, G31U
DNA 1: CAATCTGAATTCCGGTCTCCC
DNA 2: TGGTGGCTACGACGGGATT
B20: GUGGUGG (DNA:RNA)
RNA: B9 RNA with G26U, U28G, C29U, U30G
DNA 1: CAATCTGAATTCCGGTCTCCC
DNA 2: TGGTGGCTACGACGGGATT
B21: CAACACU (DNA:RNA)
RNA: B1 RNA with U25C, G29A, C31U
DNA 1: CAATCTGAATTCCGGTCTCCC
DNA 2: TGGTGGCTACGACGGGATT
B22: ACCUUGU (DNA:RNA)
RNA: B9 RNA with G25A, G26C, G27C, C29U, U30G, G31U
DNA 1: CAATCTGAATTCCGGTCTCCC
DNA 2: TGGTGGCTACGACGGGATT
B23: AUUUCGG (DNA:RNA)
RNA: B9 RNA with G25A, G26U, G27U, U30G
DNA 1: CAATCTGAATTCCGGTCTCCC
DNA 2: TGGTGGCTACGACGGGATT
B24: AUCUGAG (DNA:RNA)
RNA: B9 RNA with G25A, G26U, G27C, C29G, U30A
DNA 1: CAATCTGAATTCCGGTCTCCC
DNA 2: TGGTGGCTACGACGGGATT
B25: CGCUAUA (DNA:RNA)
RNA: B9 RNA with G25C, G27C, C29A, G31A
DNA 1: CAATCTGAATTCCGGTCTCCC
DNA 2: TGGTGGCTACGACGGGATT
B26: UCGAGCU (DNA:RNA)
RNA: B1 RNA with A26C, A27G, C28A, C31U
DNA 1: CAATCTGAATTCCGGTCTCCC
DNA 2: TGGTGGCTACGACGGGATT
B27: AAGUGAG (DNA:RNA)
RNA: B9 RNA with G25A, G26A, C29G, U30A
DNA 1: CAATCTGAATTCCGGTCTCCC
DNA 2: TGGTGGCTACGACGGGATT
B28: GUUCCGU (DNA:RNA)
RNA: B9 RNA with G26U, G27U, U28C, U30G, G31U
DNA 1: CAATCTGAATTCCGGTCTCCC
DNA 2: TGGTGGCTACGACGGGATT
B29: ACUGGAG (DNA:RNA)
RNA: B9 RNA with G25A, G26C, G27U, U28G, C29G, U30A
DNA 1: CAATCTGAATTCCGGTCTCCC
DNA 2: TGGTGGCTACGACGGGATT
B30: UGCCACU (DNA:RNA)
RNA: B1 RNA with A26G, A27C, G29A, C31U
DNA 1: CAATCTGAATTCCGGTCTCCC
DNA 2: TGGTGGCTACGACGGGATT
B31: UAGUUUG (DNA:RNA)
RNA: B9 RNA with G25U, G26A, C29U
DNA 1: CAATCTGAATTCCGGTCTCCC
DNA 2: TGGTGGCTACGACGGGATT

What follows are binders tested against T1, RBFOX1 RRM (assay: EMSA; HiTS-Eq, 1 nM pool, 10 min; buffer printed only for the single-RNA assays: 10 mM Tris pH 7.5, 150 mM NaCl, 3.4 mM EDTA, 0.001% NP-40, 30 C). Details: tags: His6 N-terminal (pET28a); label: 5' 32P.
Method in brief: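 Purified wild-type or mutant RbFox RRM at increasing concentrations was equilibrated with 1 nM of 5′-radiolabelled RNA carrying 7 randomized nucleotides for 10 min in 50 µL. Unbound RNA was separated by 8% native PAGE and sequenced. Relative association constants came from read-count changes of each RNA species compared with the control reaction, normalised to the cognate motif.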
With B1 the binding signal was 0.00751 KA relative to UGCAUGU.
With B2 the binding signal was 0.00783 KA relative to UGCAUGU.
With B3 the binding signal was 0.0165 KA relative to UGCAUGU.
With B4 the binding signal was 0.00289 KA relative to UGCAUGU.
For B5, the binding signal was 0.00895 KA relative to UGCAUGU.
With B6 the binding signal was 0.0111 KA relative to UGCAUGU.
With B7 the binding signal was 0.00333 KA relative to UGCAUGU.
B8 was tested, and the binding signal was 0.0126 KA relative to UGCAUGU.
In the case of B9, the binding signal is reported as 0.0262 KA relative to UGCAUGU.
In the case of B10, the binding signal is reported as 0.00948 KA relative to UGCAUGU.
In the case of B11, the binding signal is reported as 0.00512 KA relative to UGCAUGU.
In the case of B12, the binding signal is reported as 0.00534 KA relative to UGCAUGU.
B13 was tested, and the binding signal was 0.00115 KA relative to UGCAUGU.
In the case of B14, the binding signal is reported as 0.0108 KA relative to UGCAUGU.
In the case of B15, the binding signal is reported as 0.00264 KA relative to UGCAUGU.
For B16, the binding signal was 0.00934 KA relative to UGCAUGU.
For B17, the binding signal was 0.015 KA relative to UGCAUGU.
For B18, the binding signal was 0.00727 KA relative to UGCAUGU.
In the case of B19, the binding signal is reported as 0.0214 KA relative to UGCAUGU.
With B20 the binding signal was 0.0237 KA relative to UGCAUGU.
With B21 the binding signal was 0.000632 KA relative to UGCAUGU.
B22 was tested, and the binding signal was 0.01 KA relative to UGCAUGU.
For B23, the binding signal was 0.0104 KA relative to UGCAUGU.
B24 was tested, and the binding signal was 0.0218 KA relative to UGCAUGU.
B25 was tested, and the binding signal was 0.00135 KA relative to UGCAUGU.
In the case of B26, the binding signal is reported as 0.0133 KA relative to UGCAUGU.
With B27 the binding signal was 0.00568 KA relative to UGCAUGU.
For B28, the binding signal was 0.014 KA relative to UGCAUGU.
With B29 the binding signal was 0.00586 KA relative to UGCAUGU.
In the case of B30, the binding signal is reported as 0.0106 KA relative to UGCAUGU.
With B31 the binding signal was 0.0246 KA relative to UGCAUGU.
